Source: ChEMBL document CHEMBL4888484, “Replenishing the malaria drug discovery pipeline: Screening and hit evaluation of the MMV Hit Generation Library 1 (HGL1) against asexual blood stage Plasmodium falciparum ,using a nano luciferase reporter read-out” (2022)
Where “and” joins values, the source holds several entries; their conditions need not be identical. Equal values may be shown once. Among all 150,000 compounds or so, about 540 (0.36%) showed an effect of 50% or more. Some of the results follow.

Tested on: Plasmodium falciparum
Assay: Primary screen in NF54 nanoGlo assay, in single point, at 2uM, 72h; a lower Z score goes with more inhibition
Format: functional, Erythrocyte
Conditions: timepoint 72 hour

SMILES	% Inhibition	Z score	% Inhibition (2 µM)	Z score (2 µM)
FC(F)(F)c1ccccc1CNc1nnc(CCOc2ccccc2)o1	-13%	1.76		
CCOC(=O)CNC(=O)N1CCC(C)(c2noc(C3CCOCC3)n2)CC1	-1%	0.16		
O=C(c1ccc(C2CCC2)cc1)N1CCC(O)CC1	0%	-0.06		
C#CCN1C(=O)N[C@@](CC)(C(C)C)C1=O	38%	-1.11		
O=C(NCc1nccnc1-c1cccnc1)c1ccncc1F	-12%	1.37		
COCCN(C)C[C@@H]1CN(c2cc(C)c3cccc(OC)c3n2)C[C@@H]1CO	2%	-0.29		
CC(C)c1ncc(CN(C)Cc2cc(C(C)C)on2)cn1	-7%	1.28		
Cc1nc(C)c(C)c(N[C@H]2CCCN(Cc3cccc(O)c3)C2)n1	6%	-0.64		
C[C@@H](Cn1ccnc1)NC(=O)CCC(=O)c1ccc2c(c1)OCCO2	-4%	0.61		
CCC(=O)N1CC[C@H](NC(=O)NC2(Cc3ccccc3)CCCC2)C1	-10%	1.93		
CN(Cc1ccnc2ccccc12)C(=O)c1cn(Cc2ccc(F)cc2Cl)nn1	1%	-0.16		
Cc1c(Cl)cccc1C(=O)Nc1cc(-c2nccn2C)nn1C	3%	-0.41		
CC(C)CCNC(=O)c1csc(CN(CCC(c2ccccc2)c2ccccc2)Cc2ccc(F)cc2)n1	-11%	1.22		
Cn1c(N2CCCN(C(=O)COc3ccc(F)cc3)CC2)cc(=O)n(C)c1=O	-6%	0.96		
CN(Cc1ccccc1)S(=O)(=O)N1CC(C)(C)[C@@](C)(O)C1	-17%	2.25		
O=C(Cc1n[nH]c(=O)c2ccccc12)N[C@H]1CCCc2c1[nH]c1c(Cl)cccc21	3%	-0.39		
Brc1cn[nH]c1-c1ccccn1			-8% and -10%	1 and 1.04
CC(C)N(C)C[C@H](C)NCCc1ccccc1Cl	-1%	0.13		
NC[C@@H](C(=O)N1CCCCCCC1)c1ccccc1	1%	-0.08		
O=C(c1ccncc1)N1CCc2ccccc2C1	-4%	0.47		
CCC(C)C1NC2(CCN(C(=O)NC(C)(C)C)CC2)N(C2CCN(Cc3ccccc3)CC2)C1=O (stereo unspecified)	-4%	0.76		
O=C(Cn1cnc2ccc(Cl)cc2c1=O)N1CCCc2ccccc21	-13%	2.14		
CCc1csc(CNC(=O)c2ccc(N(C)Cc3cccs3)nc2)n1	14%	-1.86		
OC1(C(F)(F)c2nc(-c3cnccn3)no2)CCC1	-8%	1.24		
O=C1NCCCn2cc(nn2)CC2(CCN(C(=O)c3cc(F)ccc3Cl)CC2)C(=O)N[C@H]1Cc1ccccc1	-8%	1.53		
CN1CCCN(S(=O)(=O)c2ccc(C(=O)NC3CCC3)cc2)CC1	4%	-0.7		
CCc1cc([C@@H]2CCCN2C(=O)Cc2cccc(Cl)c2)on1	2%	-0.26		

SMILES	% Inhibition	Z score	% Inhibition (2 µM)	Z score (2 µM)
CCc1nc(CN2C[C@]3(C)C[C@H]2CC(C)(C)C3)n[nH]1	-9%	1.75		
OCC[C@H]1CN(C2CCN(c3cccc(Cl)c3)CC2)CCN1CC1CCCCC1	-24%	2.13		
C[C@@H](CS(C)(=O)=O)NCC(C)(C)c1ccccc1Br	2%	-0.4		
CCn1cc(CCN2CCN(C(=O)c3ccccc3)CC2)c2cccnc21	-11%	1.28		
Cn1ccnc(N[C@@H](COc2ccccc2F)c2ccccc2)c1=O	31%	-0.25		
FC(F)(F)C1CN(c2nc(-c3ccccn3)nc3c2CCC3)C1	75%	-13.36		
CC(=O)Nc1ccc2c(c1)CN(C(=O)CC(C)C)[C@H](C(=O)N(C)C)C2	2%	-0.38		
COc1ccc(C2C(C(=O)Nc3ccccc3)C(=O)CC(C)(O)C2C(=O)Nc2ccccc2)cc1 (stereo unspecified)	-7%	0.94		
Cc1cccc(NC(=O)CN2CCN(C(=O)c3nn(-c4ccccc4Cl)c(C)cc3=O)CC2)c1C	-11%	1.61		
CCOC(C)C(=O)N1CCCC(c2nc3ccccc3n2C(C)C)C1 (stereo unspecified)	-8%	0.99		
Nc1c(F)cccc1CN1CCN(C(=O)Cn2cnnn2)CC1	-10%	1.49		
O=C(CCc1c[nH]c2ccccc12)N1CCCC1	-6%	0.77		
CN(Cc1ccon1)C(=O)CN1CCCCCCC1	-8%	1.65		
CCCC1(O)CCN(C(=O)[C@@H]2COC(=O)N2)CC1	-33%	3.9		
O=C(NCC1CCCCC1)c1cc2c(F)cccc2s1	0%	0.04		
Cc1ccc(Oc2ncccc2CNC(=O)c2cc[n+]([O-])cc2)c(F)c1F	3%	-0.42		
CC(C)[C@H](Oc1ccc(F)cc1F)C(=O)NC1CC=CC1	-10%	2.1		
Cc1ccc(C)c(CN(C)S(=O)(=O)NCC(F)(F)F)c1	4%	-0.85		
O=C(NC1CC1c1cccc(Cl)c1)c1ccc[nH]1 (stereo unspecified)	9%	-1.57		
Cc1ccc2ccc3cc(C(=O)Nc4cccc(C(F)(F)F)c4)[nH]c3c2n1	2%	-0.32		
CCC(=O)N1CCN(C(=O)CCCCc2ccccc2)[C@H]2CS(=O)(=O)C[C@H]21	-12%	2.41		
Cc1cc(C)nc(O[C@H]2CCCN(C(=O)CCc3ccccc3)C2)n1	5%	-0.69		
COc1ccc(C(=O)N2CCC[C@H](C(=O)N3CCCN(C)CC3)C2)c2ccccc12	-3%	0.53		
CC[C@@H](C(=O)NCCNc1cc(C)ccn1)n1cccn1	-11%	1.01		
CC(C)(C)n1nc2nc(NCCN3CCCCC3)nc(-c3ccc(F)c(Cl)c3)c2c1N	75%	-7.01		
CCC(=O)N1CCc2cc(N3C[C@@H](C(=O)Nc4ccc5c(c4)OCCO5)CC3=O)ccc21	1%	-0.14		
